Read counts are not given, so values of variants with three or more changes are uncertain.
B1: OR4K15 (parent)
chain: GUUAACGGUCAUAGGCCAUGGAAACUAGGAGCACCAUUUCGCUGCCAGUGAAGAAAUGAACAAAGAAAAUCUGGGCCAGGCAGGCAUCAAAAGAAAUAGUCUUGCGCUCAACCAGAAAGUCUGUAAUCAUUUUAAGGGUA

Variants of: B1
Assay: self-cleavage, relative activity (ratio to wild type); higher = more cleavage; in vitro, sequencing; the parent is a self-cleaving ribozyme

Variant | self-cleavage
A69G A78G A94G | 0.24
A68G A116U U127G | 0.36
G75A G79A A96U | 0.16
A67U U87C A114U A116G | 0.01
U70C U103C A114G | 0.03
A68U U132G U133C | 1.88
A82G A95G U131C | 0.66
A67U U87C G99C | 0.4
A78G A86C U133C | 0.2
A78G A114U A118C | 0.01
U72C U103C U108C | 0
A69G U70C U131C | 0.12
C77U U87C A92G A118G U132C | 2.37
U70A U97C A110G A114U U124C | 0
A78G A111G A140G | 0.02
A82U A92G A110G A126G | 0.03
A82G A90G A91G A117G | 0.3
A69U A89C A96G U122A | 1.96
C85G A95G A110G | 0.15
U72A A78U A140C | 0.14
A69G A116G U131C | 0.22
U72C U108A C128A | 0.02
A78U A114G U122C | 0.02
A82G A98G A116G | 0.05

Variant | self-cleavage
C76A A110G A117G | 0.04
G83U A95G G106A A125G | 0
A78G A89U A116G | 0.08
A67G U103A A116G | 0.33
A68G A118G G137A | 1.06
A67G C81A A111G | 0.03
U70C A92G U120C | 1.57
G83U A90G A95G U133C A140U | 1.26
A82U A114G A140U | 0.05
A67G A94G G104A U108C A116G | 0
A69C A117G A129U | 1.17
A68G A90G G93U U122C | 1.62
A82U A89U A91U A94G A95G U100A | 0.26
U70A A91G U122A A140C | 0.16
U72C A111G A117G U122A | 0
A68G U97C U131C | 0.98
A78G G104A A126G U131C | 0
A68G A78G A135G | 0.25
A78U A92G A111G | 0.02
A69C A89G A129G | 0.43
G74C A114G A129U | 0.01
C71A A92G U130C | 0.15
A78U U102C U120C A129C | 0.55
G84C A92G U133C | 0.38

Variant | self-cleavage
A78G U103C A116G A140G | 0.13
G75U A86U A135U | 0.09
A82G U102C A114G | 0.22
A68G U100C A140G | 2.65
U70C A90G A129G | 0.12
U72C G83U U133C | 0.24
A82G A91G A92G | 0.41
A67G U97A A126G | 1.58
A67U A82C C109U | 0.08
A68U G80U A91G U97C | 0.06
A82C A89U A111G U127C | 0.01
A67U A92G G119A | 1.72
G83A A92G U122A | 2.44
A78G A126G U131A | 0.14
G73A A91U U120A | 0.12
C71U A78U U102A U131C | 0.05
U70G A126G C128A | 0.4
U70C U87A U102C A118U | 0.4
A78G A95G A114G | 0.08
G74U G83U A90G A126U | 0.16
U70G G74A A111G | 0.02
A78U A82G U127C U132C | 0.04
C71U A78G A90U A95G A118G | 0.2
A68G A90G U108C | 0.02

Variant | self-cleavage
A69G A96G U102A | 0.95
A69G U97C C107U | 0.01
A68G A90G A94G | 1.25
U72A U102C A110G | 0.05
G75A A96G U108C A114C | 0
A68G U87G A90G A117G | 0.86
G75C A86U U102C U122C | 0.12
A82G A90G A116G U122C | 0.03
A78G A95U A126G | 0.08
C77A A78G U122C | 0.22
U70A A110G A117G | 0.01
A78G U108C A116G A125G | 0.02
A82U G83A A89G U127A | 0.1
A67G U87C U139C | 1.16
A69G U102C U139A | 1.66
A67G C109U A114U | 0.08
U72C U87A A110G | 0.03
A82U A92G U97C A110C U139C | 0.02
U72A A117U U131C | 0.04
G74A U102C A111G | 0.01
C85U A89U U131A | 0.64
U70C A94G U132C | 0.89
A78U A89G A134G | 0.31
A68G U87C A94U | 1.06

Variant | self-cleavage
A78G C81U A92G A116G | 0.16
A68G U72C G104A | 0.04
A68G A89G U120C | 0.82
A69G U102A A118G A126G | 0.41
A69U A91U U97C A117G | 1.46
U70C A89G U122C | 0.1
U70C G79U A91G | 0.08
C76A U124A U130C | 0.04
A67G A111G A116G | 0.01
A67U A68G A91G | 1.2
U72A A78U U120C | 0.09
A67U A69U A116G U139C | 1.42
A67G U102C A110G | 0.19
A78C A86G A89U A118G | 0.1
U70A U87C A110G | 0.09
A67G U103C A117G | 0.58
A69G G74A A86U A95G | 0
G79U A126G A140G | 0.03
U72C C77A U103A | 0.06
A78G A92C U103A | 0.04
A78G U127A A129G | 0.28
A67G U100C A125G | 1.03
A68G A90G U127C | 0.69
A68U A82G U100A | 0.15

Variant | self-cleavage
A82U A86U U131G | 0.09
U70A A96C A98G | 0.4
U72A A90G U100C | 0.72
A67G A92U U132C | 1.42
U72C A89G U133C | 0.53
A78G A96G U97A | 0.35
A69G A90G A110C U131G | 0.18
G84C A92U U100A U108C U127C U139A | 0
A82G U97C U102A U131C | 0.07
A68G C76U A114U | 0
U70C C121A U127C | 0.67
A69G U103C A116C | 0.11
A82G A114G U120C | 0.02
A78G C101A U103G U124C | 0.01
A69G A82G U103C A135G | 1.41
C77A A92G A110G | 0.07
G75A A92G A117G A118G | 0.09
G73A U102C A117G U120C | 0.01
A67G A92G U120C | 0.1
A68U C76G A110G | 0.04
U72C A111G A126G | 0.01
A78U A98G U130C | 0.05
A68G A78G A116G | 0.11
A68U A91G G137A | 1.2

Variant | self-cleavage
A68G A69U U127C | 0.83
U70G U100C G106A A111G U131C | 0
U70C A116G A117G | 2.01
A82G A117G U122C | 0.3
A69G U70A A91U | 1.98
A69G A78G A92G U108C U122C | 0
U70C A89G U108C A110G A117G | 0
A68G A110G A129G | 0.11
A78G G79A A96G U127C | 0.06
U70C G80C A90C | 0.15
A82U A126G U127C | 0.04
A67G C77U A117G | 1.92
A68G A90G U132C | 0.86
A67U U70C U97C | 0.45
A78U A89U U100C | 0.88
A68G A91G A125U | 0.73
U70C U102A U131C | 0.24
A68G C109U A110G | 0.02
U72A U87G A90G | 0.18
A82G A114G A116C | 0.01
A82G A114G A116G | 0.07
A78U A82G A95G U139G | 0.3
A86C A126G A129U | 0.35

Reference: the RNAGym collection of RNA variant scans (doi:10.7554/elife.90254)
